Binding data for nine substances are collected here from article PMC7733952.

By UniProt entry, the sequences of proteins in these tests, tags left out. Where a name states a change or a piece, a line headed by the entry shows the natural chain unless it says otherwise.
UniProt O53816: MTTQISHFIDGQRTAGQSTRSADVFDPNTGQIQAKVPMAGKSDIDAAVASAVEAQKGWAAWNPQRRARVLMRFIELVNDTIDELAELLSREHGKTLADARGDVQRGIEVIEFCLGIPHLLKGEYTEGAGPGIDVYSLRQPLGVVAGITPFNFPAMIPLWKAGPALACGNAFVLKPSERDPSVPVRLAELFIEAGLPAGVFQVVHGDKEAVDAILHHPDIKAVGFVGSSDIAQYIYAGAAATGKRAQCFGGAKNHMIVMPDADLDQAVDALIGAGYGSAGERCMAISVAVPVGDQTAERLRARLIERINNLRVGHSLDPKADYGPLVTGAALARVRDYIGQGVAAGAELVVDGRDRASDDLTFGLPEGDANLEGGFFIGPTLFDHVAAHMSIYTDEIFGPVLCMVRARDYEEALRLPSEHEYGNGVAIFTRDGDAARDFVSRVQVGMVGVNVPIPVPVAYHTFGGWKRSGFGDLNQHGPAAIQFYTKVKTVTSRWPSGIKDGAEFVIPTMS
UniProt Q86WV6: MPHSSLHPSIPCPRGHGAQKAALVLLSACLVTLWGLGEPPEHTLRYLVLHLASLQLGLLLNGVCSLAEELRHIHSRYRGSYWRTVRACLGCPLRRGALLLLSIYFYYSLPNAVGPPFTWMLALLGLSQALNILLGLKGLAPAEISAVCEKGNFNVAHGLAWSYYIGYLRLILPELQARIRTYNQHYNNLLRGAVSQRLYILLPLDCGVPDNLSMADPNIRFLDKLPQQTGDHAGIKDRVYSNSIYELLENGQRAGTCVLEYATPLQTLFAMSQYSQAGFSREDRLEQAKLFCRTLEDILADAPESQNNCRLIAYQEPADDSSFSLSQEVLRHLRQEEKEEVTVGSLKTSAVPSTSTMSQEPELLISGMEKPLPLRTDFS
UniProt Q7Z434: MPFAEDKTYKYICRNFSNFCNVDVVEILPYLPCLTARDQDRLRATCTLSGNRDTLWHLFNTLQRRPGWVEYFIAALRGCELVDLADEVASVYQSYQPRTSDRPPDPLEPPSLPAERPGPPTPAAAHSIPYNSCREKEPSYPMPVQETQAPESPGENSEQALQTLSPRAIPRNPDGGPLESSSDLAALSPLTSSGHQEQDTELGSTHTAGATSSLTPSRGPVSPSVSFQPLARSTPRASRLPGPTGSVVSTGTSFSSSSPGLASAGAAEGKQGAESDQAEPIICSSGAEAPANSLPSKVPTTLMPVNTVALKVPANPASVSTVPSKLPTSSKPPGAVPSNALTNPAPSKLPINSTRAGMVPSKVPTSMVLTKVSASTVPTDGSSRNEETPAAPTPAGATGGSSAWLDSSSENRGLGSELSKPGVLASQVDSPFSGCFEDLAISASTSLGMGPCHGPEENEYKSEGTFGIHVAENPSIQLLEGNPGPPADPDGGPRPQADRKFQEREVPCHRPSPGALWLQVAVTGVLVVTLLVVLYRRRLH
UniProt Q8N884: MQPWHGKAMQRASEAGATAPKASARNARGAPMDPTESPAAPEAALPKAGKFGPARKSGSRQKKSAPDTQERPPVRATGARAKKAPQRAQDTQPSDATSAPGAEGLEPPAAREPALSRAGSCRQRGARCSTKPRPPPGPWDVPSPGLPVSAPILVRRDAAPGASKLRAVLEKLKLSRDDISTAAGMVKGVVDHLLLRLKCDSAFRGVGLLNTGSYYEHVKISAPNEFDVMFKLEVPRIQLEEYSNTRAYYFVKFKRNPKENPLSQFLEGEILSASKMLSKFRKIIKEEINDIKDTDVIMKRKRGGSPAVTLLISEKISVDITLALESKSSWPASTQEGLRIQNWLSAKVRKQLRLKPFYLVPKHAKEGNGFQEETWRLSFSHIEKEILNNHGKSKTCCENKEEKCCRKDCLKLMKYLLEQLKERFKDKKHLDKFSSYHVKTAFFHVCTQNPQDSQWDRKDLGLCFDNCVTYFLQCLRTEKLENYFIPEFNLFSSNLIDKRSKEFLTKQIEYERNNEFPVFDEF

Common to all, as to experiment: co-IP
Test [1] deals with M. tuberculosis Flag-MmsA (Rv0753c) (M. tuberculosis H37Rv) (UniProt O53816).
Test [2] has as its target Myc-tagged human STING (human) (UniProt Q86WV6).
Test [3] addresses Myc-MmsA (M. tuberculosis) (UniProt O53816).
Test [4] has as its target Flag-MmsA^1-251aa (M. tuberculosis H37Rv) (UniProt O53816).
In test [5] the target is Flag-MmsA^1-455aa (M. tuberculosis H37Rv) (UniProt O53816).
Test [6] addresses T1, Myc-tagged murine STING (mouse) (UniProt Q3TBT3).
T1 sequence: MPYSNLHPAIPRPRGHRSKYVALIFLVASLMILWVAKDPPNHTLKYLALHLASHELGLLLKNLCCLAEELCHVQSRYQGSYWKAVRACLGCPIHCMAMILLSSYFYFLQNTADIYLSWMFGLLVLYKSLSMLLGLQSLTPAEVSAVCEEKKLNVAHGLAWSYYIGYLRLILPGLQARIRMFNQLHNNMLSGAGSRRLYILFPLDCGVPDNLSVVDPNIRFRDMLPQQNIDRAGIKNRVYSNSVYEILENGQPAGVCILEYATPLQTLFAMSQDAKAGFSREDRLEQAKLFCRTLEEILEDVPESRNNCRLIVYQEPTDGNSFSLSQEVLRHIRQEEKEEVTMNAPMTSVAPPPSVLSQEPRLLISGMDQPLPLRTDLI

No constants are given. Whether binding was seen depends on the method and setting. In cells and extracts the contact can be indirect. Some binding calls cover weakened binding; strength is not graded here. For part of these data: Where a sequence is shown, tags or fusion partners need not be part of it.

For the substance “STING^C-Region (human STING aa 191 to 379), Myc-tagged (from UniProt Q86WV6 191-379) (domain or fragment)”, the binding result in test [1] is reported as “no binding”.

Turning to “Flag-MmsA^1-251aa (from UniProt O53816 1-251) (domain or fragment)”, in test [2], the binding entry is on record as “binds”.

For Flag-MAVS (from UniProt Q7Z434 1-540), the binding result in test [3] was “no binding”.

As for Flag-cGAS (from UniProt Q8N884 1-522), the binding result in test [3] was “no binding”.

As to “Myc-p62 (human p62, encoded by SQSTM1) (from UniProt Q13501 1-440)”, the results for the binding result in test [4], in test [5] and in test [1] were “no binding”, “binds” and “binds”, respectively.

In the case of “STING^N-Region (human STING aa 1 to 190), Myc-tagged (from UniProt Q86WV6 1-190) (domain or fragment)”, in test [1], the binding result was “binds”.

For the substance “M. tuberculosis Flag-MmsA (Rv0753c) (from UniProt O53816 1-510)”, the binding entry in test [2] and in test [6] was “binds” throughout.

For “Flag-MmsA^1-455aa (from UniProt O53816 1-455) (domain or fragment)”, the binding result in test [2] is given as “binds”.

On to “Myc-tagged human STING (from UniProt Q86WV6 1-379)”, for which, in test [1], the binding result was “binds”.
